No constants are given. Whether binding was seen depends on the method and setting. Some entries that bind do so weakly or less than the wild type.
Assays:
[1] = molecular target: T1, pGBKT7-Nse3(aa1-328) (S. pombe) (UniProt Q9Y7U4); test: two-hybrid; 3Y2H of the Nse1-Nse3-Nse4 trimer: hybrid Nse3 and Nse4 with non-hybrid Nse1/Q18A, M21A (Fig. 4A, columns 7 and 8)
T1 sequence: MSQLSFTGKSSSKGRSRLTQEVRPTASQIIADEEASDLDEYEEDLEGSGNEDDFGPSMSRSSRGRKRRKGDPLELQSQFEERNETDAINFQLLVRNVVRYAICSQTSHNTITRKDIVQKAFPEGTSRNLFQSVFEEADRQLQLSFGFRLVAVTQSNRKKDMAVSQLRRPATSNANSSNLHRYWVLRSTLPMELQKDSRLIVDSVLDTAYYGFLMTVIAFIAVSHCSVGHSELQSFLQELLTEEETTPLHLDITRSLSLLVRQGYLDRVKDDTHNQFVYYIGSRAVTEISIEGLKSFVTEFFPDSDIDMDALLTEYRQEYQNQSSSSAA

[2] = molecular target: T1, pGBKT7-Nse3(aa1-328) (S. pombe); test: two-hybrid; classical Y2H of the Nse3-Nse4 binary interaction (Fig. 4A, columns 3 and 4; Fig. 5A, column 4)
[3] = molecular target: T1, pGBKT7-Nse3(aa1-328) (S. pombe); test: two-hybrid; 3Y2H of the Nse1-Nse3-Nse4 trimer: hybrid Nse3 and Nse4 with non-hybrid Nse1 wild type (Fig. 4A, columns 5 and 6; Fig. 5A, column 6)
[4] = molecular target: T2, pGADT7-Nse4(aa1-300)/WT (S. pombe) (UniProt Q6BDR8); test: as above
T2 sequence: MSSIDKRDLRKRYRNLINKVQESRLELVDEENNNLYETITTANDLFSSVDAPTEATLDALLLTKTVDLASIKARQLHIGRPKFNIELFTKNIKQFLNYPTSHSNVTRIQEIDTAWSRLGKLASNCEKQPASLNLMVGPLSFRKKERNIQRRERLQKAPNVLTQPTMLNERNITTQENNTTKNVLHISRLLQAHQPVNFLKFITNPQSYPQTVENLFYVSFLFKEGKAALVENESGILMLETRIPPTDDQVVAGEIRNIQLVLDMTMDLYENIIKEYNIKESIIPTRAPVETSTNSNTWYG

| Binder | binding [1] | binding [2] | binding [3] | binding [4] |
| --- | --- | --- | --- | --- |
| pGADT7-Nse4(aa1-300)/WT (protein, UniProt Q6BDR8 1-300) MSSIDKRDLRKRYRNLINKVQESRLELVDEENNNLYETITTANDLFSSVDAPTEATLDALLLTKTVDLASIKARQLHIGRPKFNIELFTKNIKQFLNYPTSHSNVTRIQEIDTAWSRLGKLASNCEKQPASLNLMVGPLSFRKKERNIQRRERLQKAPNVLTQPTMLNERNITTQENNTTKNVLHISRLLQAHQPVNFLKFITNPQSYPQTVENLFYVSFLFKEGKAALVENESGILMLETRIPPTDDQVVAGEIRNIQLVLDMTMDLYENIIKEYNIKESIIPTRAPVETSTNSNTWYG | binds | binds | binds | – |
| Nse1(aa1-232), non-hybrid (protein, UniProt Q53EK2 1-232) MEKERQDGLSDKHKFILQYIMCRTAGVDNEQVRELVQEQYGETATVEDVINELNNSLHNFDFKIKRVQDQLDGRLTLHFQNLSGDPVSQMATPYPPVQIELMRKIIEWIMKCDDYQYSLTTLQIQKLSRKEMGLAPSVIESHLHTFERDGWLRQREGIWTFTNHALAELDAYLHNEYESNLYECNACREIVIAGYVCDCGYCLHVYCCKHLAHVNCINCNTPWANATVIGRW | – | – | binds | binds |

— article PMC7297730
